The entries are a selection whose mix differs from that of the whole data set. At the low end of the ranking, values are background and their order means little.

For the assay, the target named is RUNX1 (UniProt Q01196). The assay can be described thus: custom PBM. The note with it: custom protein-binding microarray; buffer, salt, pH and temperature not stated; high values mean tight binding; double strand, one strand shown.
UniProt Q01196, sequence (Q01196 whole entry): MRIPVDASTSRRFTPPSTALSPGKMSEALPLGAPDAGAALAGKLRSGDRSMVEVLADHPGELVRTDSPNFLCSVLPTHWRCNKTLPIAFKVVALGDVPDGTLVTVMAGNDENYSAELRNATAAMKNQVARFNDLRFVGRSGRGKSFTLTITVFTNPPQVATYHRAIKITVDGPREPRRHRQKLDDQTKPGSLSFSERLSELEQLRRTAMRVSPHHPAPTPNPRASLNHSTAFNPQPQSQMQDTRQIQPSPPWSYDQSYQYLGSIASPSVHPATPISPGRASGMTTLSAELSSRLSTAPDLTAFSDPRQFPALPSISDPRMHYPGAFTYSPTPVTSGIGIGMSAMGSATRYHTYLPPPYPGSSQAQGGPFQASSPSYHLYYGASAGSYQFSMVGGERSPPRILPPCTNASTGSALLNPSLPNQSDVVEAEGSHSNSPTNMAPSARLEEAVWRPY
On to “GCATACGGCTGAAGTCAGCCACATACGCACACATACACATACACACATACACATACGCAC”, for which the binding signal (log fluorescence intensity) came to 10.9.
Consider “GCGCACATTTCCCGTAAGTCATACACGCACACATACACATACACACATACACATACGCAC”, for which the binding signal (log fluorescence intensity) turned out to be 10.9.
Take “CGCGCACTCTGTAGTTGCGCACATACGCACACATACACATACACACATACACATACGCAC”: the binding signal (log fluorescence intensity) turned out to be 10.9.
Under “GCGCACATTTCCCGTAAAACATACACGCACACATACACATACACACATACACATACGCAC” stands 10.9; under “GCATACGGCTGACGTCAGGCACATACGCACACATACACATACACACATACACATACGCAC”, 10.8; under “GCGCAGATTTCCCGTAAATCATACACGCACACATACACATACACACATACACATACGCAC”, 10.9.
“GCATACGGCTGACGTCAGCGACATACGCACACATACACATACACACATACACATACGCAC”: the binding signal (log fluorescence intensity) turned out to be 10.8.

The values are drawn from publication PMC6602471.
